Reference: publication PMC9911399, “Two distinct binding modes provide the RNA-binding protein RbFox with extraordinary sequence specificity”
Substitutions are numbered along the chain they refer to; changes in the protein carry UniProt numbers. The list shows a part of the results.

B1: GAUCCAC (DNA:RNA)
RNA: GGGAGACCGGAAUUCAGAUUGUCCGAUCCACUUAAAUCCCGUCGUAGCCACCA
DNA 1: CAATCTGAATTCCGGTCTCCC
DNA 2: TGGTGGCTACGACGGGATT
B2: UACUCCU (DNA:RNA)
RNA: B1 RNA with G25U, U27C, C28U, A30C, C31U
DNA 1: CAATCTGAATTCCGGTCTCCC
DNA 2: TGGTGGCTACGACGGGATT
B3: AUAGCAU (DNA:RNA)
RNA: B1 RNA with G25A, A26U, U27A, C28G, C31U
DNA 1: CAATCTGAATTCCGGTCTCCC
DNA 2: TGGTGGCTACGACGGGATT
B4: GAGGAAU (DNA:RNA)
RNA: B1 RNA with U27G, C28G, C29A, C31U
DNA 1: CAATCTGAATTCCGGTCTCCC
DNA 2: TGGTGGCTACGACGGGATT
B5: GGCUAUG (DNA:RNA)
RNA: B1 RNA with A26G, U27C, C28U, C29A, A30U, C31G
DNA 1: CAATCTGAATTCCGGTCTCCC
DNA 2: TGGTGGCTACGACGGGATT
B6: UACAACA (DNA:RNA)
RNA: B1 RNA with G25U, U27C, C28A, C29A, A30C, C31A
DNA 1: CAATCTGAATTCCGGTCTCCC
DNA 2: TGGTGGCTACGACGGGATT
B7: UAUAUGA (DNA:RNA)
RNA: B1 RNA with G25U, C28A, C29U, A30G, C31A
DNA 1: CAATCTGAATTCCGGTCTCCC
DNA 2: TGGTGGCTACGACGGGATT
B8: AGCGGGG (DNA:RNA)
RNA: GGGAGACCGGAAUUCAGAUUGUCCAGCGGGGUUAAAUCCCGUCGUAGCCACCA
DNA 1: CAATCTGAATTCCGGTCTCCC
DNA 2: TGGTGGCTACGACGGGATT
B9: GUCCAGA (DNA:RNA)
RNA: B8 RNA with A25G, G26U, G28C, G29A, G31A
DNA 1: CAATCTGAATTCCGGTCTCCC
DNA 2: TGGTGGCTACGACGGGATT
B10: UGGGCUU (DNA:RNA)
RNA: B8 RNA with A25U, C27G, G29C, G30U, G31U
DNA 1: CAATCTGAATTCCGGTCTCCC
DNA 2: TGGTGGCTACGACGGGATT
B11: UCUCUUC (DNA:RNA)
RNA: B1 RNA with G25U, A26C, C29U, A30U
DNA 1: CAATCTGAATTCCGGTCTCCC
DNA 2: TGGTGGCTACGACGGGATT
B12: CAGCCUG (DNA:RNA)
RNA: B1 RNA with G25C, U27G, A30U, C31G
DNA 1: CAATCTGAATTCCGGTCTCCC
DNA 2: TGGTGGCTACGACGGGATT
B13: UCGAAAG (DNA:RNA)
RNA: B8 RNA with A25U, G26C, C27G, G28A, G29A, G30A
DNA 1: CAATCTGAATTCCGGTCTCCC
DNA 2: TGGTGGCTACGACGGGATT
B14: CUCGAGA (DNA:RNA)
RNA: B8 RNA with A25C, G26U, G29A, G31A
DNA 1: CAATCTGAATTCCGGTCTCCC
DNA 2: TGGTGGCTACGACGGGATT
B15: CUCAUCC (DNA:RNA)
RNA: B8 RNA with A25C, G26U, G28A, G29U, G30C, G31C
DNA 1: CAATCTGAATTCCGGTCTCCC
DNA 2: TGGTGGCTACGACGGGATT
B16: AAGACAA (DNA:RNA)
RNA: B1 RNA with G25A, U27G, C28A, C31A
DNA 1: CAATCTGAATTCCGGTCTCCC
DNA 2: TGGTGGCTACGACGGGATT
B17: CUACGUG (DNA:RNA)
RNA: B8 RNA with A25C, G26U, C27A, G28C, G30U
DNA 1: CAATCTGAATTCCGGTCTCCC
DNA 2: TGGTGGCTACGACGGGATT
B18: GAUAACU (DNA:RNA)
RNA: B1 RNA with C28A, C29A, A30C, C31U
DNA 1: CAATCTGAATTCCGGTCTCCC
DNA 2: TGGTGGCTACGACGGGATT
B19: GUAUCAA (DNA:RNA)
RNA: B1 RNA with A26U, U27A, C28U, C31A
DNA 1: CAATCTGAATTCCGGTCTCCC
DNA 2: TGGTGGCTACGACGGGATT
B20: CCCUAGG (DNA:RNA)
RNA: B8 RNA with A25C, G26C, G28U, G29A
DNA 1: CAATCTGAATTCCGGTCTCCC
DNA 2: TGGTGGCTACGACGGGATT
B21: AGCUGAA (DNA:RNA)
RNA: B8 RNA with G28U, G30A, G31A
DNA 1: CAATCTGAATTCCGGTCTCCC
DNA 2: TGGTGGCTACGACGGGATT
B22: AUCCGGC (DNA:RNA)
RNA: B8 RNA with G26U, G28C, G31C
DNA 1: CAATCTGAATTCCGGTCTCCC
DNA 2: TGGTGGCTACGACGGGATT
B23: AUUCGAU (DNA:RNA)
RNA: B1 RNA with G25A, A26U, C29G, C31U
DNA 1: CAATCTGAATTCCGGTCTCCC
DNA 2: TGGTGGCTACGACGGGATT
B24: AGGCCAC (DNA:RNA)
RNA: B1 RNA with G25A, A26G, U27G
DNA 1: CAATCTGAATTCCGGTCTCCC
DNA 2: TGGTGGCTACGACGGGATT
B25: GAAGGGC (DNA:RNA)
RNA: B8 RNA with A25G, G26A, C27A, G31C
DNA 1: CAATCTGAATTCCGGTCTCCC
DNA 2: TGGTGGCTACGACGGGATT
B26: AAGAGAA (DNA:RNA)
RNA: B8 RNA with G26A, C27G, G28A, G30A, G31A
DNA 1: CAATCTGAATTCCGGTCTCCC
DNA 2: TGGTGGCTACGACGGGATT
B27: CAAGAAA (DNA:RNA)
RNA: B1 RNA with G25C, U27A, C28G, C29A, C31A
DNA 1: CAATCTGAATTCCGGTCTCCC
DNA 2: TGGTGGCTACGACGGGATT
B28: GGGAAAG (DNA:RNA)
RNA: B8 RNA with A25G, C27G, G28A, G29A, G30A
DNA 1: CAATCTGAATTCCGGTCTCCC
DNA 2: TGGTGGCTACGACGGGATT
B29: CGCCUCC (DNA:RNA)
RNA: B8 RNA with A25C, G28C, G29U, G30C, G31C
DNA 1: CAATCTGAATTCCGGTCTCCC
DNA 2: TGGTGGCTACGACGGGATT
B30: ACGAACC (DNA:RNA)
RNA: B8 RNA with G26C, C27G, G28A, G29A, G30C, G31C
DNA 1: CAATCTGAATTCCGGTCTCCC
DNA 2: TGGTGGCTACGACGGGATT
B31: UGAUCCC (DNA:RNA)
RNA: B1 RNA with G25U, A26G, U27A, C28U, A30C
DNA 1: CAATCTGAATTCCGGTCTCCC
DNA 2: TGGTGGCTACGACGGGATT

These binders were tested against T1, RBFOX1 RRM (Homo sapiens, UniProt Q9NWB1 109-208) (assay: EMSA; HiTS-Eq, 1 nM pool, 10 min; buffer printed only for the single-RNA assays: 10 mM Tris pH 7.5, 150 mM NaCl, 3.4 mM EDTA, 0.001% NP-40, 30 C). Conditions: tags: His6 N-terminal (pET28a); label: 5' 32P.
T1 sequence: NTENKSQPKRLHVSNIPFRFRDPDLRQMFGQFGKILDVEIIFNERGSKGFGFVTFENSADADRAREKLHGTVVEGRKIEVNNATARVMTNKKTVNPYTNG
Method in brief: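 Purified wild-type or mutant RbFox RRM at increasing concentrations was equilibrated with 1 nM of 5′-radiolabelled RNA carrying 7 randomized nucleotides for 10 min in 50 µL. Unbound RNA was separated by 8% native PAGE and sequenced. Relative association constants came from read-count changes of each RNA species compared with the control reaction, normalised to the cognate motif.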

**Q.** Which binding signal does the source give for B1 here?
**A.** 0.00324 KA relative to UGCAUGU

**Q.** With B2 as the binder, how does the binding signal read?
**A.** 0.000571 KA relative to UGCAUGU

**Q.** How did the binding signal turn out when B3 was run?
**A.** 0.00479 KA relative to UGCAUGU

**Q.** Which binding signal does the source give for B4 here?
**A.** 0.0159 KA relative to UGCAUGU

**Q.** With B5 as the binder, how does the binding signal read?
**A.** 0.0119 KA relative to UGCAUGU

**Q.** With B6 as the binder, how does the binding signal read?
**A.** 0.000381 KA relative to UGCAUGU

**Q.** How did the binding signal turn out when B7 was run?
**A.** 0.0168 KA relative to UGCAUGU

**Q.** How did the binding signal turn out when B8 was run?
**A.** 0.0172 KA relative to UGCAUGU

**Q.** B9 was tested. Which binding signal did it give?
**A.** 0.015 KA relative to UGCAUGU

**Q.** With B10 as the binder, how does the binding signal read?
**A.** 0.0356 KA relative to UGCAUGU

**Q.** Which binding signal does the source give for B11 here?
**A.** 0.0078 KA relative to UGCAUGU

**Q.** Which binding signal does the source give for B12 here?
**A.** 0.0185 KA relative to UGCAUGU

**Q.** For B13, which binding signal is on record?
**A.** 0.0155 KA relative to UGCAUGU

**Q.** B14 was tested. Which binding signal did it give?
**A.** 0.013 KA relative to UGCAUGU

**Q.** For B15, which binding signal is on record?
**A.** 0.0016 KA relative to UGCAUGU

**Q.** With B16 as the binder, how does the binding signal read?
**A.** 0.000869 KA relative to UGCAUGU

**Q.** B17 was tested. Which binding signal did it give?
**A.** 0.0157 KA relative to UGCAUGU

**Q.** How did the binding signal turn out when B18 was run?
**A.** 0.00602 KA relative to UGCAUGU

**Q.** Which binding signal does the source give for B19 here?
**A.** 0.00628 KA relative to UGCAUGU

**Q.** Which binding signal does the source give for B20 here?
**A.** 0.00913 KA relative to UGCAUGU

**Q.** How did the binding signal turn out when B21 was run?
**A.** 0.0126 KA relative to UGCAUGU

**Q.** For B22, which binding signal is on record?
**A.** 0.0061 KA relative to UGCAUGU

**Q.** B23 was tested. Which binding signal did it give?
**A.** 0.0114 KA relative to UGCAUGU

**Q.** B24 was tested. Which binding signal did it give?
**A.** 0.00764 KA relative to UGCAUGU

**Q.** For B25, which binding signal is on record?
**A.** 0.00535 KA relative to UGCAUGU

**Q.** B26 was tested. Which binding signal did it give?
**A.** 0.00394 KA relative to UGCAUGU

**Q.** How did the binding signal turn out when B27 was run?
**A.** 0.000816 KA relative to UGCAUGU

**Q.** Which binding signal does the source give for B28 here?
**A.** 0.0253 KA relative to UGCAUGU

**Q.** With B29 as the binder, how does the binding signal read?
**A.** 0.0137 KA relative to UGCAUGU

**Q.** B30 was tested. Which binding signal did it give?
**A.** 0.00241 KA relative to UGCAUGU

**Q.** For B31, which binding signal is on record?
**A.** 0.00686 KA relative to UGCAUGU
